According to PubChem BioAssay AID686978 (National Center for Advancing Translational Sciences (NCATS), 2013):
The campaign covered roughly 420,000 compounds. About 64,000 (15%) were called active. Inconclusive means that the source gave no clear call. Such entries were picked first, then a sample of the others. Calls come from the whole dose curve; as a rule, active = well fitted inhibition curve with a large enough effect; inconclusive = small, poorly fitted or top-dose-only effect; inactive = flat fitted curve, though single readings scatter. Potencies of inconclusive entries are left out as doubtful fits.

experiment: qHTS for Inhibitors of human tyrosyl-DNA phosphodiesterase 1 (TDP1): qHTS in cells in absence of CPT; conditions: DT40 Tdp1-/- hTDP1 cells, no CPT, ATP luminescence, 48 h; activity change, negative = growth inhibition: at 46.2 µM (top of the series); note: nearly all actives have a fitted effect of over 55% in size
Method in brief: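 Cells were dispensed at 400 per well, compounds added by pin tool, plates incubated ≥48 hr at 37 °C, then CellTiter-Glo added for 30 min at room temperature before luminescence reading. Line: DT40 Tdp1-/- complemented with hTDP1; camptothecin omitted.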
% is set by controls: 0 for no effect and ±100 for the full control effect; potency is the fitted concentration of half-maximal effect; tags give direction and shape of the fitted curve.

| SMILES | Potency | activity change, negative = growth inhibition |
| --- | --- | --- |
| CCOc1c(Br)cc(C(=O)N2CCCN(C)CC2)cc1OC | inactive |  |
| COC(=O)[C@H](C)NC(=O)Nc1ccc(OC(F)(F)F)cc1 | inactive |  |
| O=C(CCC1CCCN(C(=O)c2cc(F)ccc2F)C1)N1CCN(c2ccccn2)CC1 (stereo not drawn) | inconclusive [inhibitor, single point] |  |
| CC(=O)c1ccc(NC(=O)CN2CCN(S(=O)(=O)c3ccc4c(c3)OCCO4)CC2)cc1 | inconclusive [inhibitor, partial curve] |  |
| Cc1ccc(N2C(=O)C(Cl)=C(N3CCCCCC3)C2=O)cc1 | inconclusive [inhibitor, single point] |  |
| O=C(CCCCN1CCCCC1)c1ccc2c(c1)Cc1ccccc1-2 | active: 20.6 µM |  |
| O=C(/C=C/c1ccccc1Cl)N(Cc1ccccc1)C1CCS(=O)(=O)C1 (stereo not drawn) | inconclusive [inhibitor, single point] |  |
| Oc1c(Br)cc(Br)cc1C=Nc1ccc2c(c1)OCCO2 | inconclusive [inhibitor, single point] |  |
| CC1CCCCN1C(=O)COC(=O)/C=C/c1ccc2ccccc2n1 (stereo not drawn) | inconclusive [inhibitor, single point] |  |
| Cc1c(O)c2c3c(cccc3c1O)C(=O)N(c1ccccc1)C2=O | inconclusive [inhibitor, single point] |  |
| CN(CCc1ccccn1)C(=S)Nc1cccc(S(=O)(=O)N(C)C)c1 | inactive |  |
| COc1ccc(C(=O)N2CCC3(CCCN(c4ncccn4)C3)CC2)cc1 | inconclusive [inhibitor, single point] |  |
| O=C(CN1CCOCC1)Nc1ccc2c(c1)CCC2 | inconclusive [inhibitor, single point] |  |
| COc1cccc(N2CCN(C(=O)CCS(=O)(=O)c3ccc4c(c3)CC(=O)N4C)CC2)c1 | inconclusive [inhibitor, partial curve] |  |
| O=C(CN1C(=O)CCC1=O)Nc1nc(-c2nc3ccccc3s2)cs1 | inactive |  |
| O=C(COc1ccc([N+](=O)[O-])cc1)Nc1ccc2c(c1)nc1n2CCOC1 | inconclusive [inhibitor, single point] |  |
| O=c1oc2ccccc2n1CCCOc1ccccc1Cl | inconclusive [inhibitor, single point] |  |
| CCOc1ccc(NC(=O)c2ccc(NC(=O)c3ccccc3Br)cc2)cc1 | inconclusive [inhibitor, partial curve, poor fit] |  |
| O=C(Nc1ccc2c(c1)OCCO2)C1CCCN(S(=O)(=O)c2cccnc2)C1 (stereo not drawn) | inconclusive [inhibitor, partial curve] |  |
| CCN(CC)S(=O)(=O)c1ccc(NC(=O)c2cc(C(=O)OC)cc([N+](=O)[O-])c2)cc1 | inconclusive [inhibitor, single point] |  |
| CC(=O)Cc1nsc(NC(=O)c2cc(-c3ccc(Cl)c(Cl)c3)oc2C)n1 | inconclusive [inhibitor, single point] |  |
| COc1ccccc1NC(=O)Cn1cnc2sc(C(=O)Nc3ccc(OC)c(OC)c3)c(C)c2c1=O | inactive |  |
| COC(=O)C(=Cc1ccc(OCc2ccc([N+](=O)[O-])cc2)c(OC)c1)C(=O)OC | active: 13 µM |  |

| SMILES | Potency | activity change, negative = growth inhibition |
| --- | --- | --- |
| Cc1nn2c(=O)cc(COC(=O)c3ccc(NC(=O)C(C)(C)C)cc3)nc2s1 | active: 18.4 µM |  |
| O=C(c1cnccn1)N1CCC2(CC1)CCN(c1ccccc1)CC2 | inconclusive [inhibitor, single point] |  |
| O=C(CCc1ccccc1)Nc1ccc(NS(=O)(=O)c2ccccc2)cc1 | inconclusive [inhibitor, single point] |  |
| COc1ccc(NC(C)C(=O)Nc2cccc(S(=O)(=O)N3CCOCC3)c2)cc1OC (stereo not drawn) | active: 8.2 µM |  |
| O=c1cc(CSc2ccccc2)[nH]c2ccccc12 | inconclusive [inhibitor, partial curve] |  |
| CCS(=O)(=O)N1CCC(c2nc(-c3ccc(C)cc3)no2)CC1 | active: 14.6 µM |  |
| O=[N+]([O-])c1ccccc1C(=Nc1ccccc1)c1c(O)cc(O)cc1O | active: 18.4 µM |  |
| CCOc1c(Br)cc(CNc2ccc(N3CCN(C(C)=O)CC3)cc2)cc1OC | inconclusive [inhibitor, partial curve] |  |
| O=C(Cn1c(=O)oc2cc(S(=O)(=O)N3CCCC3)ccc21)NCc1ccc(Cl)cc1 | active: 20.6 µM |  |
| COc1cc(OC)cc(C(=O)Nn2cc(C(=O)Nc3c(F)cccc3F)c3ccccc3c2=O)c1 | inconclusive [inhibitor, single point] |  |
| CCN(C[C@H]1N[C@@](CC)(C(=O)OC)[C@H]2C(=O)N(C)C(=O)[C@@H]12)C(=O)c1ccc(C(C)(C)C)cc1 | inconclusive [inhibitor, single point] |  |
| COc1ccc2nc(C)cc(N3CCOCC3)c2c1 | inactive |  |
| COc1ccc(Cl)cc1Nc1nc(N)c2ccccc2n1 | inconclusive [inhibitor, single point] |  |
| Cc1ccn2cc(CCNC(=O)CC3CCCCC3)nc2c1 | inactive |  |
| CCN(CC)S(=O)(=O)c1ccc2c(c1)nc(-c1ccccn1)n2C | inconclusive [inhibitor, full curve, poor fit] |  |
| O=C(CCC(=O)Nc1ccc(F)cc1)N/N=C/c1cc([N+](=O)[O-])ccc1O | inconclusive [inhibitor, single point] |  |
| C[n+]1cn(Cc2cc(Cl)ccc2OC(F)F)c2ccccc21 |  | inconclusive: -32.8% [inhibitor] |
| CCN(CC)C(=O)Cn1c(=O)n(Cc2ccc(C(=O)NCc3ccc(C)cc3)cc2)c(=O)c2ccccc21 | inactive |  |
| CCOCCCNC(=O)c1cc2c(=O)n(C)c3ccccc3c2n1C | inconclusive [inhibitor, partial curve, poor fit] |  |
| Cc1ccc(NC(=O)c2cn3c4c(ccc(Cl)c4c2=O)OC(C)C3)cc1C (stereo not drawn) | inactive |  |
| Cc1csc(NC(=O)CSc2nnc(Cc3cccn3C)n2-c2ccc(F)cc2)n1 | inconclusive [inhibitor, single point] |  |
| COc1ccc(NC(=O)NNC(=O)COc2ccc3ccccc3c2)cc1OC |  | inconclusive: -11.2% [inhibitor] |
| CC1Cc2ccccc2N1C(=O)CN(C)CC(=O)Nc1cccc(F)c1 (stereo not drawn) | inconclusive [inhibitor, single point] |  |

| SMILES | Potency | activity change, negative = growth inhibition |
| --- | --- | --- |
| COc1cc(CN2CCc3ccc(NC(=O)CCc4ccccc4OC)cc3C2)ccc1O | inconclusive [inhibitor, partial curve] |  |
| Cn1c2ccccc2c(=O)c2c(=O)n(-c3ccc(F)cc3)c(-c3cccs3)nc21 | inconclusive [inhibitor, partial curve] |  |
| CCOc1cc2sc(N3CCC(C(=O)Nc4ccccc4C(=O)OC)CC3)nc2cc1Br | inactive |  |
| O=C(C1CCC(CNS(=O)(=O)c2ccc(Br)s2)CC1)N1CCN(c2ccccc2Cl)CC1 (stereo not drawn) | active: 8.2 µM |  |
| COc1ccc(CN(CC(=O)NCc2ccccc2)C(=O)CCC(=O)Nc2cc(C)ccn2)cc1 | inconclusive [inhibitor, single point] |  |
| COc1ccc(NC(=O)Cn2c(=O)n(-c3cccc(C)c3)c(=O)c3c2c2cc(C)ccc2n3C)cc1Cl | inactive |  |
| COc1ccc(C)cc1NC(=O)CN1C(=O)COc2ccc(S(=O)(=O)N3CCOCC3)cc21 | inconclusive [inhibitor, partial curve] |  |
| Cc1cccc(Nc2nc3ccccc3s2)c1C | inconclusive [inhibitor, single point] |  |
| O=C(C1CCCN(Cc2cccc(Cl)c2)C1)N1CCCCC1 (stereo not drawn) | active: 25.9 µM |  |
| CCOC(=O)c1cccc(NC(=O)c2cc3cc4cc(OC)ccc4nc3s2)c1 | inconclusive [inhibitor, partial curve] |  |
| CC1=C(C(=O)Nc2ccccc2)C(c2ccco2)C(C#N)=C(SCC(N)=O)N1 (stereo not drawn) | inconclusive [inhibitor, single point] |  |
| O=C(OCC(=O)N1CCN(C(=O)c2ccco2)CC1)c1cccc(S(=O)(=O)N2CCc3ccccc32)c1 | inconclusive [inhibitor, partial curve] |  |
| COc1ccc(CC(=O)Nc2ccc(S(=O)(=O)Nc3onc(C)c3C)cc2)cc1OC | inactive |  |
| N/C(Cc1ccc([N+](=O)[O-])cc1)=N\OC(=O)c1ccc(Br)o1 | inconclusive [inhibitor, single point] |  |
| CCC(C)[C@H](NC(=O)[C@@H]1CSC2c3ccccc3C(=O)N21)C(=O)NCc1ccco1 (stereo partly drawn) | inactive |  |
| CC(Oc1ccc2ccc(=O)oc2c1)C(=O)N1CCOCC1 (stereo not drawn) | inactive |  |
| CCOC(=O)c1sc(NC(=O)C(C)Oc2ccc(OC)cc2)c(C(=O)OCC)c1C (stereo not drawn) | inconclusive [inhibitor, single point] |  |
| COc1ccc(C(=O)Nc2cc(-c3ccccc3)nn2-c2ccccc2)cc1 | inconclusive [inhibitor, single point] |  |
| Cn1nnc(NC(=S)NC(=O)c2cccc3c(Cl)cccc23)n1 | inactive |  |
| CCOC(=O)C1=C(N)c2ccccc2CC1C1CCCC1 (stereo not drawn) | inconclusive [inhibitor, single point] |  |
| Cc1ccc(CNC(=O)C2CCN(S(=O)(=O)Cc3ccccc3)CC2)cc1 | inactive |  |
| CCn1c(SCC(=O)c2cccs2)nnc1-c1ccco1 | inconclusive [inhibitor, single point] |  |
